# Results taken from US20240400705A1 (SYNERGY IMT, published 2024).
# T1: TROP2 on DLD1 colon cancer cells (UniProt P09758 27-323, limits assumed)
# T1 construct: whole, on cells
# T1 sequence (looked up): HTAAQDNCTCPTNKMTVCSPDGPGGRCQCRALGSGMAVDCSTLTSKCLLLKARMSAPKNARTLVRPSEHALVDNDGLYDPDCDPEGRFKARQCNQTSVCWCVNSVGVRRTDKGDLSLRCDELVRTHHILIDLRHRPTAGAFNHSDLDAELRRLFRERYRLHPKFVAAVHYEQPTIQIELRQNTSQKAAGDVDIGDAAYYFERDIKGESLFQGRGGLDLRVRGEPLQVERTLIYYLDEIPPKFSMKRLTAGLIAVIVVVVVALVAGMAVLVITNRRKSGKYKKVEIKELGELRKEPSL
# B1: bispecific recombinant antigen binding molecule 13-14 (NKG2DL x CD3) (Fc fusion)
# chain 1: QIPLTESYCGPCPKNWICYKNNCYQFFDESKNWYESQASCMSQNASLLKVYSKEDQDLLKLVKSYHWMGLVHIPTNGSWQWEDGSILSPNLLTIIEMQKGDCALYASSFKGYIENCSTPNTYICMQRTVPAGGGGGTHTCPPCPAPEAAGGPSVFLFPPKPKDTLMISRTPEVTCVVVDVSHEDPEVKFNWYVDGVEVHNAKTKPREEQYNSTYRVVSVLTVLHQDWLNGKEYKCKVSNKALPAPIEKTISKAKGQPREPQVCTLPPSRDELTKNQVSLSCAVKGFYPSDIAVEWESNGQPENNYKTTPPVLDSDGSFFLVSKLTVDKSRWQQGNVFSCSVMHEALHNHYTQKSLSLSPGK
# chain 2: EVQLVESGGGLVQPGGSLKLSCAASGFTFNTYAMNWVRQAPGKGLEWVGRIRSKYNNYATYYADSVKGRFTISRDDSKNTLYLQMNSLKTEDTAVYYCVRHGNFGNSYVSWFAYWGQGTLVTVSSGGGGSGGGGSGGGGSQAVVTQEPSLTVSPGGTVTLTCGSSTGAVTTSNYANWVQQKPGQAFRGLIGGTNKRAPGTPARFSGSLLGGKAALTLSGAQPEDEAEYYCALWYSNLWVFGGGTKLTVLASGGGGGPLTESYCGPCPKNWICYKNNCYQFFDESKNWYESQASCMSQNASLLKVYSKEDQDLLKLVKSYHWMGLVHIPTNGSWQWEDGSILSPNLLTIIEMQKGDCALYASSFKGYIENCSTPNTYICMQRTVPAGGG[gap - human IgG1 Fc with changes and a few adjoining residues]
# notes: 13: NKG2D-linker-tIg hinge-G1Fc; 14: h3scFv-NKG2D-linker-tIg hinge-G1Fc
# Target: T1, TROP2 on DLD1 colon cancer cells
# Test: flow cytofluorimetry on AGS cells (TROP2 on AGS); bar = MFI, marker = percent positive; concentration not given for this panel
binder,measurement,value
B1,binding result,no binding
